In paper PMC4336329 (PLoS ONE, 2015):
About 14,000 (4.5%) of roughly 310,000 compounds showed an effect of 50% or more. Effects have a minus sign here. The list shows a part of the results.

Target: human ether-à-go-go-related gene (hERG) potassium channel (human, UniProt Q12809)
Assay: primary screen, population patch clamp on CHO cells stably expressing hERG
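Further: peak tail current of the secondary pulse compared with the same well before compound.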

Sequence of human ether-à-go-go-related gene (hERG) potassium channel (Q12809 whole entry, looked up): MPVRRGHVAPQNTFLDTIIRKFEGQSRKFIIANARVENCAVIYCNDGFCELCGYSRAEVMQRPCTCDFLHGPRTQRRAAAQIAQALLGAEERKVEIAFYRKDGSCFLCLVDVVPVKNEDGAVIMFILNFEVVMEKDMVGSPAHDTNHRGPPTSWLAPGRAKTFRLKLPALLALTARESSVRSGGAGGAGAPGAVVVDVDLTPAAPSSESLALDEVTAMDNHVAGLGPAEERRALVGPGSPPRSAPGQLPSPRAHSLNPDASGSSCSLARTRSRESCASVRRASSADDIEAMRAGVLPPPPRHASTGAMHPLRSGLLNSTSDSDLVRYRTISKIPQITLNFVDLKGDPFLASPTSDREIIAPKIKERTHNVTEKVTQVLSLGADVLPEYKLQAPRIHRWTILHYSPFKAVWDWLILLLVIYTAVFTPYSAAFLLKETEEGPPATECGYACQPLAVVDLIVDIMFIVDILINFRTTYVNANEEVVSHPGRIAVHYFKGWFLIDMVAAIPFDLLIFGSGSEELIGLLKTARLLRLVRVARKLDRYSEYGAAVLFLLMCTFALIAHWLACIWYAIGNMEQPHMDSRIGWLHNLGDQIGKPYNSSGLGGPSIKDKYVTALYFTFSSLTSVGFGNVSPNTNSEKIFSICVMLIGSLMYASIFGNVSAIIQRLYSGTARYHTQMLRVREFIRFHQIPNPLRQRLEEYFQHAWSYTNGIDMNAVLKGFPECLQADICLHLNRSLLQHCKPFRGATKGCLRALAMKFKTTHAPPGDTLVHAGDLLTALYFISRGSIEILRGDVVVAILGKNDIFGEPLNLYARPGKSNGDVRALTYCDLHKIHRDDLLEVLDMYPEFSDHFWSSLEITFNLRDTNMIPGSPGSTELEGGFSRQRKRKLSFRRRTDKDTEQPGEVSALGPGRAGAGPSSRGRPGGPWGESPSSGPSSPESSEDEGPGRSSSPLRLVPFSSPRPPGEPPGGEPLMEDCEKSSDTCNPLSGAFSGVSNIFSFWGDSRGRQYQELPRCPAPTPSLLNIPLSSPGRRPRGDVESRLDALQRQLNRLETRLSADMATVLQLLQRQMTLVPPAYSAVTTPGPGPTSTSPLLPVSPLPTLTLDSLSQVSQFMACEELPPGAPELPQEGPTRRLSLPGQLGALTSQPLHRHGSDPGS

First: O=C(Nc1nc2ccccc2n1CCN1CCCCC1)c1ccc(Cl)cc1
Second: O=C(CCN1CCN(c2ccccc2F)CC1)Nc1ccccc1Cl
The “hERG current change (%, negative = inhibition) at 10uM” value of the first is lower: -13.2% for the first, -2.49% for the second.

First: Cc1ccc(CN2CCCN(Cc3ccc(F)cc3Cl)S2(=O)=O)cc1
Second: COc1c(O)cccc1[C@@H](O)C1CCN(CCc2ccc(F)cc2)CC1
The “hERG current change (%, negative = inhibition) at 10uM” value of the first is higher: 11.7% for the first, -55.8% for the second.

Compared with `O=C(NCCc1ccccc1)C1CCN(S(=O)(=O)c2ccc(-n3cnnn3)cc2)CC1`, `Cc1cc(S(=O)(=O)N(Cc2ccccc2)Cc2ccc(N(C)C)cc2)ccc1-n1cnnn1` is higher in “hERG current change (%, negative = inhibition) at 10uM” value: -66.3% for the first, -7.77% for the second.

Going from `CCOc1ccc(C(=O)Nc2nc(C)cc(C)n2)cc1[N+](=O)[O-]` to `Cc1ccc(S(=O)(=O)/N=C(\N)Nc2nc(C)c3cc(C)c(C)cc3n2)cc1`, the “hERG current change (%, negative = inhibition) at 10uM” value rises from -49.6% to -13.6%.

First: O=C(CN(c1ccc(Br)cc1)S(=O)(=O)c1ccc(Cl)c([N+](=O)[O-])c1)NCCc1ccccc1
Second: CCc1ccccc1NNC(=O)CCc1ccccc1
The “hERG current change (%, negative = inhibition) at 10uM” value of the first is higher: 29.4% for the first, 7.59% for the second.

First: COC(=O)c1cc(C#N)c(SCc2ccccc2)nc1C
Second: COCc1n[nH]c(=S)n1-c1cccc2ccccc12
The “hERG current change (%, negative = inhibition) at 10uM” value of the first is lower: 11.8% for the first, 18.2% for the second.

Going from `CCN(CCNC(=O)CS(=O)(=O)Cc1nc(-c2cccc(OC)c2)oc1C)c1ccccc1` to `O=C(COC(=O)CCNS(=O)(=O)c1ccccc1)NC(=O)Cc1ccccc1`, the “hERG current change (%, negative = inhibition) at 10uM” value falls from 1.04% to -6.79%.

First: CNc1cnn(-c2ccc(C)cc2)c(=O)c1Sc1ccc(C)cc1
Second: Cc1ccc(S(=O)(=O)Nc2ccc(-c3nc4ccc(C)cc4s3)cc2)cc1
The “hERG current change (%, negative = inhibition) at 10uM” value of the first is lower: -8.7% for the first, 2.32% for the second.

Compared with `CCNc1nc(NCC)nc(SCC(C)=O)n1`, `CCNc1nnc(SCC(=O)c2c(N)n(C3CC3)c(=O)[nH]c2=O)s1` is lower in “hERG current change (%, negative = inhibition) at 10uM” value: 34.8% for the first, 10.7% for the second.

Going from `COc1ccc(/C=N/Nc2cc(C)nc(N3CCOCC3)n2)cc1OC` to `COc1cc2c(cc1OC)C(C(=O)NCc1cccnc1)C(c1cccnc1)N(C)C2=O` (stereo not shown), the “hERG current change (%, negative = inhibition) at 10uM” value rises from -0.783% to 9.05%.

Compared with `Cc1ccc(C(=O)N/N=C\c2cc3c(cc2Br)OCO3)s1`, `COc1ccc(Br)cc1/C=N/NC(=O)c1cccnc1` is lower in “hERG current change (%, negative = inhibition) at 10uM” value: 6.19% for the first, -8.41% for the second.

Going from `CCn1nnnc1NCc1c(OC)ccc2ccccc12` to `CCOc1cc(-c2sc(Nc3ccccc3)n[n+]2-c2ccc(F)cc2)ccc1OC.[Cl-]`, the “hERG current change (%, negative = inhibition) at 10uM” value rises from 0.28% to 23.6%.

First: CC(=O)Nc1ccc(N(C(=O)Cc2c[nH]c3ccccc23)C(C(=O)NC2CCCCC2)c2ccco2)cc1 (stereo not shown)
Second: O=C(c1ccc(Cn2c(=O)[nH]c3ccccc3c2=O)cc1)N1CCN(c2ccccn2)CC1
The “hERG current change (%, negative = inhibition) at 10uM” value of the first is lower: -13.1% for the first, 0.196% for the second.

First: CC(C)(C)NC(=O)[C@@H]1CN(Cc2cccnc2)CCN1C[C@@H](O)C[C@@H](Cc1ccccc1)C(=O)N[C@H]1c2ccccc2C[C@H]1O.O=S(=O)(O)O
Second: CCc1cccc(CC)c1NC(=O)COC(=O)CC1c2ccccc2CCN1S(=O)(=O)c1ccc(F)cc1 (stereo not shown)
The “hERG current change (%, negative = inhibition) at 10uM” value of the first is lower: -6.83% for the first, -2.04% for the second.

Compared with `Cl.Cn1nnnc1SCCNCc1ccncc1`, `COCCNC(=O)C(=O)NCC1OCCN1S(=O)(=O)c1ccc(C)cc1` (stereo not shown) is higher in “hERG current change (%, negative = inhibition) at 10uM” value: 0.895% for the first, 15.7% for the second.

Going from `Cc1ccc(S(=O)(=O)N(C)CCCC(=O)Nc2ccc(C)cc2C)cc1` to `CCOC(=O)OC(C)OC1=C(C(=O)Nc2ccccn2)N(C)S(=O)(=O)c2ccccc21` (stereo not shown), the “hERG current change (%, negative = inhibition) at 10uM” value rises from -33.8% to 16.1%.

Going from `O=C(Nc1nnc(-c2ccco2)s1)C1CC1` to `CC1(C)CC(=O)C(C=NCC2CCN(C(=S)Nc3ccccc3)CC2)=C(O)C1`, the “hERG current change (%, negative = inhibition) at 10uM” value rises from -10.2% to -3.98%.

Going from `C#CCOCCOCCOCCNc1nc(N2CCN(C(=O)[C@H]([C@@H](C)CC)n3cc([C@@H](N)Cc4ccc(O)cc4)nn3)CC2)nc(N2CCN(C(=O)[C@H](Cc3ccc(O)cc3)n3cc([C@@H](N)C(C)CC)nn3)CC2)n1.Cl` (stereo partly shown) to `O=C(CSc1nc2sccc2c(=O)[nH]1)N1CCN(c2ccccc2)CC1`, the “hERG current change (%, negative = inhibition) at 10uM” value rises from -4.47% to 0.279%.

Compared with `COc1ccc(COC(=O)CN2C(=O)NC3(CCCC3)C2=O)cc1F`, `CC(=O)Nc1ccc(C(=O)OCCC(C)C)cc1` is lower in “hERG current change (%, negative = inhibition) at 10uM” value: -3.03% for the first, -17.4% for the second.

Going from `COc1cc(-c2noc(C)c2C#CCO)cc(OC)c1OC` to `Cc1ccc2nc(Nc3ncc4c(n3)CC(C)(C)CC4=O)nc(C)c2c1`, the “hERG current change (%, negative = inhibition) at 10uM” value rises from 6.47% to 15.3%.

First: Nc1nc(C2CC2)c(Sc2sc(N)nc2C2CC2)s1
Second: c1ccc(-c2nccnc2-c2ccccc2)cc1
The “hERG current change (%, negative = inhibition) at 10uM” value of the first is higher: -1.16% for the first, -8.23% for the second.

In the case of `O=C(/C=C/c1ccccc1)NNC(=O)c1cccc(Cl)c1`, the “hERG current change (%, negative = inhibition) at 10uM” value was -2.03%.
